Consider 84 variants from a collection of fitness landscapes (doi:10.1126/science.1257360).

Some of the results follow.

First the molecules themselves.
B1: PhoQ; a variant is named by its letters at X, in order, P23837 (parent)
chain: MKKLLRLFFPLSLRVRFLLATAAVVLVLSLAYGMVALIGYSVSFDKTTFRLLRGESNLFYTLAKWENNKLHVELPENIDKQSPTMTLIYDENGQLLWAQRDVPWLMKMIQPDWLKSNGFHEIEADVNDTSLLLSGDHSIQQQLQEVREDDDDAEMTHSVAVNVYPATSRMPKLTIVVVDTIPVELKSSYMVWSWFIYVLSANLLLVIPLLWVAAWWSLRPIEALAKEVRELEEHNRELLNPATTRELTSLVRNLNRLLKSERERYDKYRTTLTDLTHSLKTPLXXLQXXLRSLRSEKMSVSDAEPVMLEQISRISQQIGYYLHRASMRGGTLLSRELHPVAPLLDNLTSALNKVYQRKGVNISLDISPEISFVGEQNDFVEVMGNVLDNACKYCLEFVEISARQTDEHLYIVVEDDGPGIPLSKREVIFDRGQRVDTLRPGQGVGLAVAREITEQYEGKIVAGESMLGGARMEVIFGRQHSAPKDE

This experiment covers variants of B1. Kind of experiment: enrichment ratio after two sorts for PhoP signalling (ratio (wild type AVST 3.29)); higher = more functional. The settings on record: with PhoP (E. coli).
For DTAA, the enrichment ratio is no more than 0.25.

With GFRL, the enrichment ratio is no more than 0.25. With IYKG the figure was no more than 0.25; with KSLM, no more than 0.25. As to WWCN, the enrichment ratio is no more than 0.25. With WFQF the figure was no more than 0.25; with TLLN, 0.361; with TIFN, 0.384. Turning to MIFY, the enrichment ratio came out at 2.

Turning to VPKI, the enrichment ratio was no more than 0.25. On to DQTE, for which the enrichment ratio is no more than 0.25. Take TEPN: the enrichment ratio is no more than 0.25. Then EVLY, with no more than 0.25; and KART, with no more than 0.25; and FVAC, with no more than 0.25.

As to FVIR, the enrichment ratio was no more than 0.25. Then DCCV, with no more than 0.25; and VNTK, with no more than 0.25; and FMNS, with no more than 0.25.

On to TQYR, for which the enrichment ratio is no more than 0.25. With AATM the figure was 0.767; with IYPE, no more than 0.25; with LPRD, 0.439.

On to MTNN, for which the enrichment ratio is no more than 0.25. Consider GYEN, for which the enrichment ratio was no more than 0.25.

Consider RKIS, for which the enrichment ratio is no more than 0.25.

ITKI: the enrichment ratio is no more than 0.25.

For the variant IHSN, the enrichment ratio was no more than 0.25.

For IPVV, the enrichment ratio is no more than 0.25. Then KVIG, with no more than 0.25; and LYER, with no more than 0.25. With WFEK the figure was no more than 0.25; with GSPC, no more than 0.25. With VYGN the figure was no more than 0.25; with MQIM, no more than 0.25. Take SGFG: the enrichment ratio was no more than 0.25. With HYRG the figure was no more than 0.25; with QQSV, 0.38; with SRTA, no more than 0.25. With PVHH the figure was no more than 0.25; with AQPV, no more than 0.25; with PMFG, no more than 0.25. Then DSAG, with no more than 0.25; and NHEV, with no more than 0.25; and AKIQ, with no more than 0.25. As for RSKH, the enrichment ratio was no more than 0.25. With LNFS the figure was 0.252; with YNIA, no more than 0.25; with TFFL, no more than 0.25. With AKLS, the enrichment ratio came out at 13.1.

On to NRTR, for which the enrichment ratio is no more than 0.25.

For RCHI, the enrichment ratio was no more than 0.25. For the variant TFDR, the enrichment ratio is no more than 0.25.

For MDFQ, the enrichment ratio was no more than 0.25. Then DDLW, with no more than 0.25.

As to QKTY, the enrichment ratio is no more than 0.25. Then FGSC, with no more than 0.25; and NRYK, with no more than 0.25; and DVIC, with no more than 0.25.

Turning to PWYN, the enrichment ratio was no more than 0.25. Then WMYR, with no more than 0.25; and YIVG, with no more than 0.25. For WKEI, the enrichment ratio was no more than 0.25. Then FFLQ, with no more than 0.25. With GNMG the figure was no more than 0.25; with MKIL, no more than 0.25. With LGLP the figure was no more than 0.25; with CQFS, no more than 0.25. For the variant TLWG, the enrichment ratio was no more than 0.25. Then EQRF, with no more than 0.25; and EKWK, with no more than 0.25; and TEMW, with no more than 0.25. Then DMVH, with no more than 0.25; and MNFG, with 3.77; and EPSH, with no more than 0.25. With SCKR the figure was no more than 0.25; with RSLP, no more than 0.25; with VVAK, no more than 0.25.

RAGF: the enrichment ratio is no more than 0.25. With GKRE the figure was no more than 0.25. For GYNV, the enrichment ratio is no more than 0.25. Consider KQMS, for which the enrichment ratio was no more than 0.25. With WELH the figure was no more than 0.25; with NCKK, no more than 0.25.
